The values below come from US20200164083A1 (PROLYNX, published 2020).

In this assay the target is GLP-1 receptor. Put plainly: cell-based or functional assay.

B1: [N28A]exenatide (peptide)
peptide: not shown
modifications: chain 1: C-terminal amide (-NH2) on Ser39
Turning to B1, the “EC50, cAMP assay (GLP1R cAMP Hunter bioassay)” value was found to be 25 pM.

B2: [N28K]exenatide (peptide)
peptide: not shown
modifications: chain 1: C-terminal amide (-NH2) on Ser39
In the case of B2, the “EC50, cAMP assay (GLP1R cAMP Hunter bioassay)” value is 35 pM.
